In the RNAGym collection of RNA variant scans (doi:10.7554/elife.90254):
The source gives no read counts; variants with many changes may rest on few reads.

B1: LINE1-mini (parent)
chain: GGCAGAGCUCAACACAGCGUGGCAAAGUGGCUGUGGCUAGACUGCC

Variants of: B1
Assay: self-cleavage, relative activity (ratio to wild type); higher = more cleavage; in vitro, sequencing; the parent is a self-cleaving ribozyme

Row | Variant | self-cleavage
1 | GGCAGAGCUCAACACAGCGUGGCAAAGUCGCAGAGGCUAGCCUGCC [G29C U32A U34A A41C] | 0.09
2 | GGCAGAGCUCAACACAGCGUGGCAAAGUCGCUGGGGGUAGACUGCC [G29C U34G C37G] | 0
3 | GGCAGAGCUCAACACAGCGUGGCAAAGUGACUGUGACUAGACUGGC [G30A G36A C45G] | 0.59
4 | GGCAGAGCUCAACACAGCGUGGCAAAGUGACUGUGGGCAGACUGCC [G30A C37G U38C] | 0.05
5 | GGCAGAGCUCAACACAGCGUGGCAAAGUUGCUCUGGCUAGAUUGCC [G29U G33C C42U] | 0.09
6 | GGCAGAGCUCAACACAGCGUGGCAAAGUCGCUGUGGCUAAACUGCU [G29C G40A C46U] | 0.18
7 | GGCAGAGCUCAACACAGCGUGGCAAAGUGACUGUGGUUAGACUGCU [G30A C37U C46U] | 0.02
8 | GGCAGAGCUCAACACAGCGUGGCAAAGUUGCUGUGGUUAGACUUCC [G29U C37U G44U] | 0
9 | GGCAGAGCUCAACACAGCGUGGCAAAGUUGCUGUGACUGGACUGCC [G29U G36A A39G] | 0.11
10 | GGCAGAGCUCAACACAGCGUGGCAAAGUCGCUGUGACUAGCCUGCC [G29C G36A A41C] | 0.02
11 | GGCAGAGCUCAACACAGCGUGGCAAAGUGAGUGUGGCUAUACCGCC [G30A C31G G40U U43C] | 0.1
12 | GGCAGAGCUCAACACAGCGUGGCAAAGUUGCGCUGGCAAGACUGCC [G29U U32G G33C U38A] | 0.3
13 | GGCAGAGCUCAACACAGCGUGGCAAAGUAGCUGUGGCGGGACUGCC [G29A U38G A39G] | 0.02
14 | GGCAGAGCUCAACACAGCGUGGCAAAGUCUCUUUGGCUAGACUGUC [G29C G30U G33U C45U] | 0.03
15 | GGCAGAGCUCAACACAGCGUGGCAAAGUGAAUGUGGCUAGACUGCA [G30A C31A C46A] | 0.13
16 | GGCAGAGCUCAACACAGCGUGGCAAAGUUGCAGUGGCUAAACUGCC [G29U U32A G40A] | 0.31
17 | GGCAGAGCUCAACACAGCGUGGCAAAGUGACUGUGGCUCGACUCCC [G30A A39C G44C] | 0.21
18 | GGCAGAGCUCAACACAGCGUGGCAAAGUCGCCAUCGCUAGUCGGGG [G29C U32C G33A G35C A41U U43G C45G C46G] | 0.01
19 | GGCAGAGCUCAACACAGCGUGGCAAAGUUGCUGUGACUAGCCUGGC [G29U G36A A41C C45G] | 0.03

Row | Variant | self-cleavage
20 | GGCAGAGCUCAACACAGCGUGGCAAAGUUACUGUAGCGAGACUGCC [G29U G30A G35A U38G] | 0
21 | GGCAGAGCUCAACACAGCGUGGCAAAGUUGCUGUGGCUAGACGUCC [G29U U43G G44U] | 0.03
22 | GGCAGAGCUCAACACAGCGUGGCAAAGUUGCUGUGGCUAGACAGGC [G29U U43A C45G] | 0.09
23 | GGCAGAGCUCAACACAGCGUGGCAAAGUAGCUGUGGCUAGACAACC [G29A U43A G44A] | 0.11
24 | GGCAGAGCUCAACACAGCGUGGCAAAGUUCCUGUGGCUAGAUUGUC [G29U G30C C42U C45U] | 0.05
25 | GGCAGAGCUCAACACAGCGUGGCAAAGUUGAUGUGGCUAGACUGCG [G29U C31A C46G] | 0.14
26 | GGCAGAGCUCAACACAGCGUGGCAAAGUUGCUGUGGUGGGACUGCC [G29U C37U U38G A39G] | 0.01
27 | GGCAGAGCUCAACACAGCGUGGCAAAGUUGGUGUGGCUAAACUGCC [G29U C31G G40A] | 0.02
28 | GGCAGAGCUCAACACAGCGUGGCAAAGUCGCUGUGGCUAGCCUGCU [G29C A41C C46U] | 0.07
29 | GGCAGAGCUCAACACAGCGUGGCAAAGUCGCUGUGGCUAAACCGCC [G29C G40A U43C] | 0.02
30 | GGCAGAGCUCAACACAGCGUGGCAAAGUCGCUGUGGCCAGACUGUC [G29C U38C C45U] | 0.26
31 | GGCAGAGCUCAACACAGCGUGGCAAAGUUGCUGUCGCUAGAGUGCC [G29U G35C C42G] | 0.01
32 | GGCAGAGCUCAACACAGCGUGGCAAAGUUGCUAUGGCUACACCGCC [G29U G33A G40C U43C] | 0.04
33 | GGCAGAGCUCAACACAGCGUGGCAAAGUCGCUGUGGCUAGGCUGUC [G29C A41G C45U] | 0.49
34 | GGCAGAGCUCAACACAGCGUGGCAAAGUGACUGUGACUAGACAGCC [G30A G36A U43A] | 1.63
35 | GGCAGAGCUCAACACAGCGUGGCAAAGUGACUGUCUCUAAACUGCC [G30A G35C G36U G40A] | 0.02
36 | GGCAGAGCUCAACACAGCGUGGCAAAGUUGCUGUGGCUCGGCUGCC [G29U A39C A41G] | 0.13
37 | GGCAGAGCUCAACACAGCGUGGCAAAGUUUCUGUGGCUAGACUGCA [G29U G30U C46A] | 0.98
38 | GGCAGAGCUCAACACAGCGUGGCAAAGUUUAUGUGGCUAGACUGCC [G29U G30U C31A] | 0.26

Row | Variant | self-cleavage
39 | GGCAGAGCUCAACACAGCGUGGCAAAGUUGCUGUGGCUAGACAGCU [G29U U43A C46U] | 0
40 | GGCAGAGCUCAACACAGCGUGGCAAAGUGACUGUGGCUAGAUUCCC [G30A C42U G44C] | 0.08
41 | GGCAGAGCUCAACACAGCGUGGCAAAGUUGCUGUGGCUAAACUACC [G29U G40A G44A] | 0.11
42 | GGCAGAGCUCAACACAGCGUGGCAAAGUGACUAUGGCCAGACUGCC [G30A G33A U38C] | 0.07
43 | GGCAGAGCUCAACACAGCGUGGCAAAGUUGCUUUGGAUAGACUGCA [G29U G33U C37A C46A] | 0.05
44 | GGCAGAGCUCAACACAGCGUGGCAAAGUCGCAGGGGCUAGACUGCC [G29C U32A U34G] | 0.05
45 | GGCAGAGCUCAACACAGCGUGGCAAAGUUGCUGUGGCUGGACUACC [G29U A39G G44A] | 0.03
46 | GGCAGAGCUCAACACAGCGUGGCAAAGUUGCUGUGGCUCGACUCCC [G29U A39C G44C] | 0.13
47 | GGCAGAGCUCAACACAGCGUGGCAAAGUUGCUGUGCAUAGACUGCC [G29U G36C C37A] | 0.14
48 | GGCAGAGCUCAACACAGCGUGGCAAAGUCGCUGUGGGGAGACUGAC [G29C C37G U38G C45A] | 0.01
49 | GGCAGAGCUCAACACAGCGUGGCAAAGUUGCUGUGGUUAGACUGCG [G29U C37U C46G] | 0.05
50 | GGCAGAGCUCAACACAGCGUGGCAAAGUUGCUGUGGUUAGACUGCU [G29U C37U C46U] | 0.06
51 | GGCAGAGCUCAACACAGCGUGGCAAAGUCGCUGUGGCUAUACUGGC [G29C G40U C45G] | 0.12
52 | GGCAGAGCUCAACACAGCGUGGCAAAGUUGCUGGGGUCAGACUGAG [G29U U34G C37U U38C C45A C46G] | 0.07
53 | GGCAGAGCUCAACACAGCGUGGCAAAGUUGCUGUUGCUAUACUGCC [G29U G35U G40U] | 0.08
54 | GGCAGAGCUCAACACAGCGUGGCAAAGUCGCUGUGCCUGGACUGCC [G29C G36C A39G] | 0.03
55 | GGCAGAGCUCAACACAGCGUGGCAAAGUCGCUGUGACUAGACUACC [G29C G36A G44A] | 0.32
56 | GGCAGAGCUCAACACAGCGUGGCAAAGUUGCUGUGGCCAGAUUGCC [G29U U38C C42U] | 0.83
